Experimental data published in publication PMC11067542.
No constants are given. Whether binding was seen depends on the method and setting. Binding seen in cells or lysates may run through a third protein. Some entries that bind do so weakly or less than the wild type. For some assays here: Sequences can lack the tags named with a protein.

Chains of the proteins cited; added tags and fusions are not shown.
UniProt P68104: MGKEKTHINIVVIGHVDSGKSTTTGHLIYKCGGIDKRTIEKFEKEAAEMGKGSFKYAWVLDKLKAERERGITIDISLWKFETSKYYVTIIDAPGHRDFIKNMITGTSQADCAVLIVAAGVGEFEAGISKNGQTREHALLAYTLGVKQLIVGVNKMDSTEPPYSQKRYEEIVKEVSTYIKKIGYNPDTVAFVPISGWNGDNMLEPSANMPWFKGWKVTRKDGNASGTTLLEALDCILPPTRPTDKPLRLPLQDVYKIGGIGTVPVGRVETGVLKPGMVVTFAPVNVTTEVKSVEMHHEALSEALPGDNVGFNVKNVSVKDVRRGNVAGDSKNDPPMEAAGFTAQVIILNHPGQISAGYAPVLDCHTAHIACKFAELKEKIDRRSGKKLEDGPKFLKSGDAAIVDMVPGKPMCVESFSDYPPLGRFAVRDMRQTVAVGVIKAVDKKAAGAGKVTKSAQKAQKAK
UniProt Q96P20: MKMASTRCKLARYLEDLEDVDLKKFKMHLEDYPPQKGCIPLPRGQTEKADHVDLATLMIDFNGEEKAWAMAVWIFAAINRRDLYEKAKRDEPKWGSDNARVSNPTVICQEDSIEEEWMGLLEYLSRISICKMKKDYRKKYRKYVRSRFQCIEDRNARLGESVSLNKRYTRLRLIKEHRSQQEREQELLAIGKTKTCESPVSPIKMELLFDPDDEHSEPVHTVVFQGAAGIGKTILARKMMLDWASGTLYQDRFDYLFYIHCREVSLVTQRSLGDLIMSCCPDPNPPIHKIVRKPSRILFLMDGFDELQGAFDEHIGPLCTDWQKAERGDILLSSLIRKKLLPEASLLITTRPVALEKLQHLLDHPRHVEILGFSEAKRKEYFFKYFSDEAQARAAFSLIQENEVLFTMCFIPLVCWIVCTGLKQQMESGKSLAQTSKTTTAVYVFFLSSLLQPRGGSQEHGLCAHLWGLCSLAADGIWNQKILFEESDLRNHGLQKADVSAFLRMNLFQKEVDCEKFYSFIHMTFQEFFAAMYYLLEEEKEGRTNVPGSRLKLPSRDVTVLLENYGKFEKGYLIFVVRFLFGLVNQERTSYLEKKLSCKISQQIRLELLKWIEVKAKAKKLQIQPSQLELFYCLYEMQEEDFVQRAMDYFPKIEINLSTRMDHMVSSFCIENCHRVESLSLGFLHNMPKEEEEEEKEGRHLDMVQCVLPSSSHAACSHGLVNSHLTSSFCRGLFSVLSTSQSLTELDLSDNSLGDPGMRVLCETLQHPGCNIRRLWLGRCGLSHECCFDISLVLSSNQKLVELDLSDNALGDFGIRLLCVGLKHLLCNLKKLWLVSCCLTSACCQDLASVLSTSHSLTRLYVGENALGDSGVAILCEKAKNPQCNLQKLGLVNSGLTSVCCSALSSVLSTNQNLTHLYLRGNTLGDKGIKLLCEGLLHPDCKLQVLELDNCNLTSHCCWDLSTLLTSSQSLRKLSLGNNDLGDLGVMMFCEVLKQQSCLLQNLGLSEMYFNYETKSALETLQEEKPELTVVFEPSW
UniProt Q8TDX7: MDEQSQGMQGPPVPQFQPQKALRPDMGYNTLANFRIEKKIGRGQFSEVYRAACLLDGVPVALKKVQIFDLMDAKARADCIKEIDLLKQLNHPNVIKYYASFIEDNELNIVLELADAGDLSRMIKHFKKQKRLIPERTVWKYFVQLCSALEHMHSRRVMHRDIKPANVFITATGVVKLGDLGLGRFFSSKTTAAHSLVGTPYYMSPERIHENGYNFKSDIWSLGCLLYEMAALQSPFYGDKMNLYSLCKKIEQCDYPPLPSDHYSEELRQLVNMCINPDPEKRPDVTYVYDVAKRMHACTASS

Columns and labels:
Flag-EEF1A1 = Flag-EEF1A1 (UniProt P68104); experiment: co-IP; HEK293T cells co-transfected with Flag- and HA-tagged plasmids; RIPA lysis buffer (50 mM Tris-HCl pH 7.4, 150 mM NaCl, 1% NP-40, 1 mM EDTA, 5% glycerol); antibody (anti-Flag, anti-HA or anti-NLRP3) at 4 °C overnight, protein G-agarose 2 h, washes with 300 mM NaCl; immunoblot
[1] = biological target: T1, Flag-SLC25A3 (not stated (human or mouse cDNA cloned)) (UniProt Q00325); experiment: as above
T1 sequence: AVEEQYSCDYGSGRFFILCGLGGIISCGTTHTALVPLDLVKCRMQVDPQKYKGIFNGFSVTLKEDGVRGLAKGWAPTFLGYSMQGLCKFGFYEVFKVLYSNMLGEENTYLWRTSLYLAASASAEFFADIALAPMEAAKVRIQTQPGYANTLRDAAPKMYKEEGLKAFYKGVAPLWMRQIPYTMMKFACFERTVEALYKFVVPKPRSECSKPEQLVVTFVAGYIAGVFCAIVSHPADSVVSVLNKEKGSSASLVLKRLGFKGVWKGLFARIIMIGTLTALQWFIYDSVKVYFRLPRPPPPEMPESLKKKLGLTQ

Flag-NLRP3 [2] = biological target: Flag-NLRP3 (UniProt Q96P20); experiment: co-IP; competition: HEK293T cells with Flag-NLRP3 and Flag-NEK7 plus Vector-HA or HA-SLC25A3, or Flag-NLRP3 and HA-SLC25A3 plus Vector-Flag or Flag-NEK7; IgG (rabbit) or anti-NLRP3 antibody; immunoblot
Flag-AIM2 = biological target: T2, Flag-AIM2 (UniProt O14862); experiment: co-IP; HEK293T cells co-transfected with Flag- and HA-tagged plasmids; RIPA lysis buffer (50 mM Tris-HCl pH 7.4, 150 mM NaCl, 1% NP-40, 1 mM EDTA, 5% glycerol); antibody (anti-Flag, anti-HA or anti-NLRP3) at 4 °C overnight, protein G-agarose 2 h, washes with 300 mM NaCl; immunoblot
T2 sequence: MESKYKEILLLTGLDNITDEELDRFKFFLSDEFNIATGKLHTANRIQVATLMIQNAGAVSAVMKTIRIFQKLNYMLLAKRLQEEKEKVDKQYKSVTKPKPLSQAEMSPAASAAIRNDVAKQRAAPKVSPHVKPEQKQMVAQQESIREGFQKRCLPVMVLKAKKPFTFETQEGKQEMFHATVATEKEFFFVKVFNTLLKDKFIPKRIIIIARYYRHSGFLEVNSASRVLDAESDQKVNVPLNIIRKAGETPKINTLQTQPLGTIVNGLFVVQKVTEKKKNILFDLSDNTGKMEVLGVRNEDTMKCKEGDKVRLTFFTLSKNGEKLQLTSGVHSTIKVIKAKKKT

Flag-NEK7 = Flag-NEK7 (UniProt Q8TDX7); experiment: as above
Flag-NLRP3 [3] = biological target: Flag-NLRP3 (UniProt Q96P20); experiment: as above
[4] = biological target: NLRP3, endogenous in THP-1 derived macrophages (human (endogenous in THP-1)) (UniProt Q96P20); experiment: co-IP; endogenous proteins of THP-1 derived macrophages after stimulation (LPS then ATP 10-60 min; LPS plus nigericin, with or without NSA, disulfiram or acetylcysteine; Salmonella at different time points); IgG, anti-NLRP3 or anti-SLC25A3 antibody; RIPA buffer, 4 °C overnight; immunoblot
[5] = biological target: NLRP3, endogenous in THP-1 derived macrophages (human (endogenous in THP-1)) (UniProt Q96P20); experiment: condition: only without the stimulators of NLRP3 inflammasome; co-IP; endogenous proteins of THP-1 derived macrophages without the stimulators of the NLRP3 inflammasome (LPS-primed, ATP 0 min); IgG, anti-NLRP3 or anti-SLC25A3 antibody; immunoblot

HA-NLRP3 (from UniProt Q96P20 1-1036)
binding (Flag-EEF1A1): binds
binding [1]: binds

B1: HA-SLC25A3 (protein, UniProt Q00325 50-362)
chain: AVEEQYSCDYGSGRFFILCGLGGIISCGTTHTALVPLDLVKCRMQVDPQKYKGIFNGFSVTLKEDGVRGLAKGWAPTFLGYSMQGLCKFGFYEVFKVLYSNMLGEENTYLWRTSLYLAASASAEFFADIALAPMEAAKVRIQTQPGYANTLRDAAPKMYKEEGLKAFYKGVAPLWMRQIPYTMMKFACFERTVEALYKFVVPKPRSECSKPEQLVVTFVAGYIAGVFCAIVSHPADSVVSVLNKEKGSSASLVLKRLGFKGVWKGLFARIIMIGTLTALQWFIYDSVKVYFRLPRPPPPEMPESLKKKLGLTQ
binding (Flag-NLRP3 [2]): binds
binding (Flag-AIM2): no binding
binding (Flag-NEK7): no binding
binding (Flag-NLRP3 [3]): binds

B2: SLC25A3, endogenous in THP-1 derived macrophages (protein, UniProt Q00325 50-362)
chain: AVEEQYSCDYGSGRFFILCGLGGIISCGTTHTALVPLDLVKCRMQVDPQKYKGIFNGFSVTLKEDGVRGLAKGWAPTFLGYSMQGLCKFGFYEVFKVLYSNMLGEENTYLWRTSLYLAASASAEFFADIALAPMEAAKVRIQTQPGYANTLRDAAPKMYKEEGLKAFYKGVAPLWMRQIPYTMMKFACFERTVEALYKFVVPKPRSECSKPEQLVVTFVAGYIAGVFCAIVSHPADSVVSVLNKEKGSSASLVLKRLGFKGVWKGLFARIIMIGTLTALQWFIYDSVKVYFRLPRPPPPEMPESLKKKLGLTQ
binding [4]: binds
binding [5]: no binding
